For 20 molecules, binding signal results are on record in article PMC9911399, “Two distinct binding modes provide the RNA-binding protein RbFox with extraordinary sequence specificity”.

Changes are numbered by the printed parent chain; changes in the protein carry UniProt numbers. This is one part of the list.

T1: RBFOX1 RRM (Homo sapiens, UniProt Q9NWB1 109-208)
T1 sequence: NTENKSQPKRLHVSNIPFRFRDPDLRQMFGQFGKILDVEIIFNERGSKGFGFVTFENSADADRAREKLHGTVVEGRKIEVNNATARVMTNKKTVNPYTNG

B1: CUGACUA (DNA:RNA)
RNA: GGGAGACCGGAAUUCAGAUUGUCCCUGACUAUUAAAUCCCGUCGUAGCCACCA
DNA 1: CAATCTGAATTCCGGTCTCCC
DNA 2: TGGTGGCTACGACGGGATT
B2: CUAUACU (DNA:RNA)
RNA: B1 RNA with G27A, A28U, C29A, U30C, A31U
DNA 1: CAATCTGAATTCCGGTCTCCC
DNA 2: TGGTGGCTACGACGGGATT
B3: GCCUUUA (DNA:RNA)
RNA: B1 RNA with C25G, U26C, G27C, A28U, C29U
DNA 1: CAATCTGAATTCCGGTCTCCC
DNA 2: TGGTGGCTACGACGGGATT
B4: GGUGAAG (DNA:RNA)
RNA: GGGAGACCGGAAUUCAGAUUGUCCGGUGAAGUUAAAUCCCGUCGUAGCCACCA
DNA 1: CAATCTGAATTCCGGTCTCCC
DNA 2: TGGTGGCTACGACGGGATT
B5: UCACACC (DNA:RNA)
RNA: B4 RNA with G25U, G26C, U27A, G28C, A30C, G31C
DNA 1: CAATCTGAATTCCGGTCTCCC
DNA 2: TGGTGGCTACGACGGGATT
B6: AACCAAU (DNA:RNA)
RNA: B4 RNA with G25A, G26A, U27C, G28C, G31U
DNA 1: CAATCTGAATTCCGGTCTCCC
DNA 2: TGGTGGCTACGACGGGATT
B7: UGACACG (DNA:RNA)
RNA: B4 RNA with G25U, U27A, G28C, A30C
DNA 1: CAATCTGAATTCCGGTCTCCC
DNA 2: TGGTGGCTACGACGGGATT
B8: CGAGGUU (DNA:RNA)
RNA: B1 RNA with U26G, G27A, A28G, C29G, A31U
DNA 1: CAATCTGAATTCCGGTCTCCC
DNA 2: TGGTGGCTACGACGGGATT
B9: CCCUGUC (DNA:RNA)
RNA: B1 RNA with U26C, G27C, A28U, C29G, A31C
DNA 1: CAATCTGAATTCCGGTCTCCC
DNA 2: TGGTGGCTACGACGGGATT
B10: GAUAUCU (DNA:RNA)
RNA: B4 RNA with G26A, G28A, A29U, A30C, G31U
DNA 1: CAATCTGAATTCCGGTCTCCC
DNA 2: TGGTGGCTACGACGGGATT
B11: UCUGCGC (DNA:RNA)
RNA: B4 RNA with G25U, G26C, A29C, A30G, G31C
DNA 1: CAATCTGAATTCCGGTCTCCC
DNA 2: TGGTGGCTACGACGGGATT
B12: GAUCUGC (DNA:RNA)
RNA: B4 RNA with G26A, G28C, A29U, A30G, G31C
DNA 1: CAATCTGAATTCCGGTCTCCC
DNA 2: TGGTGGCTACGACGGGATT
B13: CGCCACA (DNA:RNA)
RNA: B1 RNA with U26G, G27C, A28C, C29A, U30C
DNA 1: CAATCTGAATTCCGGTCTCCC
DNA 2: TGGTGGCTACGACGGGATT
B14: GUGUUUG (DNA:RNA)
RNA: B1 RNA with C25G, A28U, C29U, A31G
DNA 1: CAATCTGAATTCCGGTCTCCC
DNA 2: TGGTGGCTACGACGGGATT
B15: UGUGGAG (DNA:RNA)
RNA: B4 RNA with G25U, A29G
DNA 1: CAATCTGAATTCCGGTCTCCC
DNA 2: TGGTGGCTACGACGGGATT
B16: CCAUAUG (DNA:RNA)
RNA: B1 RNA with U26C, G27A, A28U, C29A, A31G
DNA 1: CAATCTGAATTCCGGTCTCCC
DNA 2: TGGTGGCTACGACGGGATT
B17: CUAAAAC (DNA:RNA)
RNA: B1 RNA with G27A, C29A, U30A, A31C
DNA 1: CAATCTGAATTCCGGTCTCCC
DNA 2: TGGTGGCTACGACGGGATT
B18: UUCCGAC (DNA:RNA)
RNA: B1 RNA with C25U, G27C, A28C, C29G, U30A, A31C
DNA 1: CAATCTGAATTCCGGTCTCCC
DNA 2: TGGTGGCTACGACGGGATT
B19: UAGUAUC (DNA:RNA)
RNA: B1 RNA with C25U, U26A, A28U, C29A, A31C
DNA 1: CAATCTGAATTCCGGTCTCCC
DNA 2: TGGTGGCTACGACGGGATT
B20: UACUGUA (DNA:RNA)
RNA: B1 RNA with C25U, U26A, G27C, A28U, C29G
DNA 1: CAATCTGAATTCCGGTCTCCC
DNA 2: TGGTGGCTACGACGGGATT

The test addresses T1, RBFOX1 RRM. Description: EMSA; HiTS-Eq, 1 nM pool, 10 min; buffer printed only for the single-RNA assays: 10 mM Tris pH 7.5, 150 mM NaCl, 3.4 mM EDTA, 0.001% NP-40, 30 C. To be noted: tags: His6 N-terminal (pET28a); label: 5' 32P. The procedure, abridged: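 These values rest on relative association constants, computed from read-count changes of each RNA species versus the control reaction and normalised to the cognate motif. Reads came from free RNA recovered by 8% native PAGE after purified RbFox RRM (wild type or mutant) at increasing concentrations was equilibrated for 10 min in 50 µL with 1 nM of a 5′-radiolabelled pool with 7 randomized nucleotides and DNA-annealed flanks.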
Take B1: the binding signal is 0.00689 KA relative to UGCAUGU.

For B2, the binding signal was 0.00396 KA relative to UGCAUGU.

Regarding B3, the binding signal was 0.00729 KA relative to UGCAUGU.

In the case of B4, the binding signal is 0.0202 KA relative to UGCAUGU.

In the case of B5, the binding signal was 0.00176 KA relative to UGCAUGU.

Turning to B6, the binding signal was 0.000388 KA relative to UGCAUGU.

As for B7, the binding signal is 0.0135 KA relative to UGCAUGU.

With B8, the binding signal is 0.0152 KA relative to UGCAUGU.

Turning to B9, the binding signal is 0.0142 KA relative to UGCAUGU.

As to B10, the binding signal is 0.00629 KA relative to UGCAUGU.

Consider B11, for which the binding signal was 0.0191 KA relative to UGCAUGU.

B12: the binding signal is 0.021 KA relative to UGCAUGU.

Take B13: the binding signal was 0.00515 KA relative to UGCAUGU.

Consider B14, for which the binding signal is 0.0242 KA relative to UGCAUGU.

With B15, the binding signal was 0.0134 KA relative to UGCAUGU.

On to B16, for which the binding signal is 0.00413 KA relative to UGCAUGU.

Regarding B17, the binding signal is 0.000947 KA relative to UGCAUGU.

With B18, the binding signal is 0.00882 KA relative to UGCAUGU.

As to B19, the binding signal is 0.0135 KA relative to UGCAUGU.

In the case of B20, the binding signal was 0.0104 KA relative to UGCAUGU.
